Data as given in the supplement of paper PMC10338343.
± gives the standard deviation. The entries are a selection whose mix differs from that of the whole data set.

Test system: MIWI (PIWIL1) piRISC loaded with L1MC piRNA (30 nt)
Test: pre-steady-state target cleavage rate (min^-1); MIWI and MILI are mouse PIWI proteins and EfPiwi is from a freshwater sponge; tags in brackets are library labels; higher = faster piRNA-guided slicing of the target
Conditions: guide: L1MC piRNA 5'p-UAACUAAAUACUAUGCAAGCUGUAGGUCCU
Summary of the method: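 In this Cleave-'n-Seq assay, uncleaved targets were sequenced and normalised to depth and to weakly complementary targets. They came from a transcribed, DNA-blocked target RNA library […] mixed with 1 nM active affinity-purified piRISC carrying one synthetic guide, with or without 500 nM GTSF1 partner protein, in HEPES–potassium acetate buffer at 33 °C for 0–8 or 0–960 min. After three trials were pooled and k3 was capped at 0.0001 min^-1, the pre-steady-state cleavage rate was obtained from a burst-and-steady-state fit.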

[1] = auxiliary factor: 500 nM mouse GTSF1
[2] = auxiliary factor: none (no GTSF1)
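Note: 1 nM active piRISC with 0.1 nM target library at 33 °C single turnover.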

Sequence | pre-steady-state target cleavage rate [1] | pre-steady-state target cleavage rate [2]
AGGACCUACACCUUGCUUAGUAUUUAGUUA | 1.17 ± 0.057 | 0.046 ± 0.0082
UCCUGGUACAGACUUGCAUAGUAUUUAGUUA | 0.457 ± 0.073 | 0.0228 ± 0.0055
UCCUGCUACUGCUUCCAUAGUAUUUAGUUA | 0.0398 ± 0.01 | 0.00359 ± 0.0022
AGGACCAUGAGCUUGCAUAGUAUUUACAAA | 0.141 ± 0.03 | 0.00392 ± 0.0023
AGGACCUACAGCUUGCAUAGUAUUAAGAAA | 0.383 ± 0.055 | 0.00355 ± 0.0033
UCCUGGAACAGCUAGCAUAGUAUUUUGUUA | 0.546 ± 0.04 | 0.00902 ± 0.0027
UCCACCUAGAGCUUGCAUACUAUUUAGUUA | 0.391 ± 0.052 | 0.0225 ± 0.0041
UCCUGGAUGUCCUUGCAUAGUAUCUUAGUUA | 0.0207 ± 0.0065 | 0.0034 ± 0.0025
UCCUGCUACAGCUUGCAUCGUAUUUAGUUA | 0.518 ± 0.046 | 0.0248 ± 0.0064
AGGAGCUACAGCUUGCAUAGUAAUUAGUUA | 0.892 ± 0.054 | 0.0361 ± 0.0086
UCCUGCUACAGCUUGCAUAGAUUUUAGUUA | 0.117 ± 0.012 | 0.00384 ± 0.0023
AGGACCUACAGCUUGACAUAGUAUUUAGUUA | 1.07 ± 0.093 | 0.0105 ± 0.0047
UCCUGGAACAGCUAGCAUAGUAUUUAGUUA | 0.836 ± 0.027 | 0.022 ± 0.0049
UCCUGGAUCAGCUUGCAGAGUAUUUAGUUA | 0.405 ± 0.038 | 0.0221 ± 0.0054
UCCACCUACAGCUUGCACAGUAUUUAGUUA | 0.905 ± 0.026 | 0.043 ± 0.0077
UCCUGGAUGAGCUUGCAUAGUUUUUAGAAA | 0.0136 ± 0.0075 | 0.00575 ± 0.0034
UGGACCUACAGCUUGCACAGUAUUUAGUUA | 0.969 ± 0.036 | 0.0507 ± 0.0094
UCGAGCUACAGCUUGCAUAGAAUUUAGUUA | 0.431 ± 0.034 | 0.0269 ± 0.0071
UGGACCUACAGCUUGCAUAGUAUUUAGAUUA | 0.309 ± 0.03 | 0.0364 ± 0.0056
UCGACCUACAGCUUGCACAGUAUUUAGUUA | 1.18 ± 0.032 | 0.051 ± 0.0086
UCGACCUACAGCAUGCAUAGUAUUUAGUUA | 1.48 ± 0.049 | 0.0548 ± 0.013
UCCUGGAUGUGCUUGCAAAGUAUUUAGAUA | 0.0429 ± 0.0083 | 0.00745 ± 0.0027
UGGACCUACAGCUUGCAUAGUAUUAACUUA | 0.106 ± 0.014 | 0.00947 ± 0.0029
UCGACGUACAGCUUGCAUAGUAUUUUGUUA | 0.798 ± 0.037 | 0.0411 ± 0.0071
UCCUGCUACAGCUUGCAUAGUAUUUUCUUA | 0.121 ± 0.019 | 0.00565 ± 0.0019
AGGACCAACAGCUUGCAUAGUAUUUAGUAA | 0.974 ± 0.079 | 0.0722 ± 0.014
AGGACCUACAGCAUGGAUAGUAUUUAGUUA | 1.57 ± 0.086 | 0.0502 ± 0.0089
UCCUGGAACAGCUUGCAUACUAUUUAGAAA | 0.096 ± 0.02 | 0.00562 ± 0.0024

Sequence | pre-steady-state target cleavage rate [1] | pre-steady-state target cleavage rate [2]
UCGACCUACAGCUUGCAUAGUAUAUUAGUUA | 1.25 ± 0.049 | 0.0248 ± 0.0063
UCCUCCAUCAGCUUGCAUAGUAUUUAGUUA | 0.739 ± 0.027 | 0.0679 ± 0.013
UCGACCUUCAGCUUGCAUACUAUUUAGUUA | 0.376 ± 0.023 | 0.032 ± 0.007
UCGACCUACAGCUAGCAUUGUAUUUAGUUA | 0.822 ± 0.045 | 0.00769 ± 0.0019
UCCUGGAACAGGUUGCAUUGUAUUUAGUUA | 0.544 ± 0.052 | 0.00919 ± 0.0033
AGGACCUCAGCUUGCAUAGUAUUUAGUUA | 1.34 ± 0.077 | 0.0984 ± 0.019
UCCUGGAUGACCUUGCAUAGAAUUUAGUUA | 0.0208 ± 0.0075 | 0.00293 ± 0.0023
UGGAGCUACAGCUUGCAUAGUUUUUAGUUA | 0.427 ± 0.019 | 0.0426 ± 0.0088
UGGACCUACAGGAUGCAUAGUAUUUAGUUA | 1.02 ± 0.082 | 0.0264 ± 0.0053
UCCUGGAUCAGCUUGCAUAGUUAUUAGUUA | 0.0809 ± 0.012 | 0.0161 ± 0.004
UCCUGCUACUAGCUUGCAUAGUAUUUAGUUA | 0.638 ± 0.045 | 0.0546 ± 0.012
UCCUACUACAGCUUGCAUAGUAUUUAGUUA | 0.886 ± 0.036 | 0.057 ± 0.0085
UCGAGCUAGAGCUUGCAUAGUAUUUAGUUA | 0.962 ± 0.051 | 0.0483 ± 0.0092
UCGACCUACAGCAUGGAUAGUAUUUAGUUA | 1.59 ± 0.076 | 0.0294 ± 0.005
UCCUGCUACAGCUUGCAUACUAUUAAGUUA | 0.187 ± 0.021 | 0.0109 ± 0.0027
UCCUGGUUCAGCUUGCAUAGUAUUUUCAAA | 0.11 ± 0.025 | 0.00359 ± 0.0028
AGGACCAACAGCUUGCAUACUAUUUAGUUA | 0.371 ± 0.018 | 0.0379 ± 0.0075
AGGACCUACAGCUUGCAUAGUUAAUAGUUA | 0.2 ± 0.034 | 0.0111 ± 0.004
AGGACCUACAGCCUUGCAUAGUAUUUAGUUA | 1.23 ± 0.069 | 0.0878 ± 0.019
UCCUGGAUCAGCUUGUAUAGUAUUUAGUUA | 1.64 ± 0.1 | 0.0468 ± 0.012
UCCACCUACUGCUUGCAUAGUAAUUAGUUA | 0.364 ± 0.025 | 0.018 ± 0.0036
UGGACCUACACCAUGCAUAGUAUUUAGUUA | 0.769 ± 0.038 | 0.0179 ± 0.0032
UCGACCAACAGCUUGCAUAGUAUUUACUUA | 0.335 ± 0.024 | 0.0337 ± 0.0049
UGGAGCUACAGCUUGCAUAGAAUUUAGUUA | 0.432 ± 0.023 | 0.0258 ± 0.0064
UCCUGGAUCAGGUUGCAAAGUAUUUAGUUA | 0.391 ± 0.036 | 0.0061 ± 0.0023
UCCUGGAUCAGCUAGCAUAGUAUUAAGUUA | 0.51 ± 0.045 | 0.00395 ± 0.0028
UCCUGGAUCAGCUUGCAUACUAUUUAGAUA | 0.0405 ± 0.0092 | 0.00727 ± 0.0031
